Laboratory results as given in article PMC11911400, “Mechanism of ASF1 engagement by CDAN1” (Nature Communications, 2025).
Positions count from the first letter of the chain named. These are yes or no findings as the source states them, for the method shown. In cells and extracts the contact can be indirect. Some binding calls cover weakened binding; strength is not graded here.

The chains behind the UniProt entries cited, without tags or fusion partners.
UniProt Q9NVP2: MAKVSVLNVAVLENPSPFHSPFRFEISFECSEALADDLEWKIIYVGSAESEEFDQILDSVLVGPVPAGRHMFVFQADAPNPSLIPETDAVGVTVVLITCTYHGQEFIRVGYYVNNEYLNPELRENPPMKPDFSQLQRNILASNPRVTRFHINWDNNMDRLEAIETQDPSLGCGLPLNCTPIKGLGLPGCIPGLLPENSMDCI
UniProt Q9Y294: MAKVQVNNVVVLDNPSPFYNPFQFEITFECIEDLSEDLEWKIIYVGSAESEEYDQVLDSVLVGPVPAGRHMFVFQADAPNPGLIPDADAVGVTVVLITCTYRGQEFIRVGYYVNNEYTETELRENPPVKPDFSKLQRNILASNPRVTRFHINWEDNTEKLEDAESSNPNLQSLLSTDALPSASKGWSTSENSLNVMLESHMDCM

Experiments:
[1] = biological target: T1, Strep-CDAN1 BDA1* BDA2* (both B-domains mutated) (human) (UniProt Q8IWY9); test: pull-down; Strep-Tactin pulldown of transiently transfected ST-CDAN1 variants from Flp-In 293 T-REx lysates; endogenous ASF1A, ASF1B and CDIN1 detected by immunoblotting; IP buffer with 1% Triton X-100, 1 hr at 4 °C
T1 sequence: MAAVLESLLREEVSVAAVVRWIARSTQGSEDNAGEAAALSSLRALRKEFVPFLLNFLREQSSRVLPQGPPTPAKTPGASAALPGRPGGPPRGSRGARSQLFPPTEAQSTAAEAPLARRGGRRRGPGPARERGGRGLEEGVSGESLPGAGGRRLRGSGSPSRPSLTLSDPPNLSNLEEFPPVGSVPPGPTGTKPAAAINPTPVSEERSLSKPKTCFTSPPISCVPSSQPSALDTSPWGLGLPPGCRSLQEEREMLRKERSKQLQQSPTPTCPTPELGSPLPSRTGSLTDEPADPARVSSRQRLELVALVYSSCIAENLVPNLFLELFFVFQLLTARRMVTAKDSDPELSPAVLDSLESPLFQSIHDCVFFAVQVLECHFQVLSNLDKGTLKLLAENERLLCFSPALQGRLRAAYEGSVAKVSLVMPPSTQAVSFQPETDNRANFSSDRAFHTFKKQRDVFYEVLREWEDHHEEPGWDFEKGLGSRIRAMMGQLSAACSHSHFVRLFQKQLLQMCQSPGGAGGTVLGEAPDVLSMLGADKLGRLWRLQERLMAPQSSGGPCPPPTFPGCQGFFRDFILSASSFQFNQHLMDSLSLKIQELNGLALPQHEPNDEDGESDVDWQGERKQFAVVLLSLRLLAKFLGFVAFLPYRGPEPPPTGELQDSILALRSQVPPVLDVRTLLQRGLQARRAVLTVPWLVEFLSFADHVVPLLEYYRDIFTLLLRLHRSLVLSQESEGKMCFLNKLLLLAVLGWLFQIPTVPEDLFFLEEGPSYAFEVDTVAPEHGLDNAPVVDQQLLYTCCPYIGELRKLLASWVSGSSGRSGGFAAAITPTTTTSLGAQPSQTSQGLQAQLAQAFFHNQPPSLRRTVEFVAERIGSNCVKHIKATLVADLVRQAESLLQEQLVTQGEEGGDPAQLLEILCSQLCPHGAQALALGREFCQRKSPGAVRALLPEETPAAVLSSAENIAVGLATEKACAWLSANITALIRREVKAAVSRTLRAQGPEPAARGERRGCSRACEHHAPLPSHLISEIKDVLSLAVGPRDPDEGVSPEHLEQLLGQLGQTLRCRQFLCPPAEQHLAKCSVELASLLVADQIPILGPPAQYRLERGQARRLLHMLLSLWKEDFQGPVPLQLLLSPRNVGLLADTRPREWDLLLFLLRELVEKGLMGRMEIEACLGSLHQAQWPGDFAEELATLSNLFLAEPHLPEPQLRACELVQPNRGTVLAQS

[2] = biological target: T2, HMHA2* BDA2* ST-CDAN1 (human) (UniProt Q8IWY9); test: as above
T2 sequence: T1 sequence with R251A, R255A, R258A, A824M, A825R, A826K

binding [1] | binding [2] | Substance
no binding | binds | endogenous ASF1B (from UniProt Q9NVP2 1-202)
no binding | binds | endogenous ASF1A (from UniProt Q9Y294 1-204)
